Experimental data from PMC10726135.
The list shows a part of the results. At the low end of the ranking, values are background and their order means little. The protein was read in a cell extract, so binding may be indirect.

These sequences were tested against T1, HNF4alpha2 (COS-7 nuclear extract) (UniProt P41235) (assay: protein-binding microarray). Conditions: COS-7 nuclear extract on double-stranded Agilent 4x180k PBM; binding buffer, salt, pH and temperature not given; high values mean tight binding; double strand, one strand shown; sequences stand for … in …GCCTAGGGAGATTAGAGTATCGGTCGA.
T1 sequence: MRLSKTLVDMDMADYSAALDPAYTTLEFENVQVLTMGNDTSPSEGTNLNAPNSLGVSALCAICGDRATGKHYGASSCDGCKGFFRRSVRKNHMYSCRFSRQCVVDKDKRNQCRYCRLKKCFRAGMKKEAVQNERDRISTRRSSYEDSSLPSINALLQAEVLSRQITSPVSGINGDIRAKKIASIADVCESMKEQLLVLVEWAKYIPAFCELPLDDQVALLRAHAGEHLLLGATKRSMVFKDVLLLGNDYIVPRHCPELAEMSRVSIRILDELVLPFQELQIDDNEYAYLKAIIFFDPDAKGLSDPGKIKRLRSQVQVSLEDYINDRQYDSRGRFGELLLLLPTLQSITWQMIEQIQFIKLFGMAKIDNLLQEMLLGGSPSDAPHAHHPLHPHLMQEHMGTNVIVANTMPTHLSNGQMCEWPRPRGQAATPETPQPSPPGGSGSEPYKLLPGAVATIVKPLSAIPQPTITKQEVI

Sequence | binding signal (log2 normalized intensity)
ACCACACCACAGCGGGGCCTCTGTGTGGGG | -0.897
TCCCAAGGCAGCAATCCCCTGCAATACAGC | 0.381
TCCAGGGTCACGTGCCGCTGCGGGTCACGT | 2.35
CTTGGGGTCAAAGTACATCCCCTAAAACAT | 5.71
CTGACCTCAAGTGACCTTTGACCTCTGGCC | 11
AGGAGTGGTCCTGCTCAAAGGGGAAAGAGG | -1.1
AACCTCCGCGATTCCCGCCGCCTCCGCTGG | -1.09
CTTTCTAAAGTATGTGGTGGGTGTGGTGAT | 2.51
CCATTAAACATCAGTTTGCATATGCCACAG | 0.563
TCAGCTATCAGTTTACATTCCAGGGTGAAA | 0.6
GTCAGACCAGACAGCACCTCTCTGATGCCA | -1.13
CACAAACATACAACCATCAAAGGTCACTTT | 4.1
TCAGTTAATGTACAGAGTATAATAAAGTGG | 1.3
AGTTCCATGAGTTAGTGCCCTCTGGTGGCA | 1.91
TGGCTCCTCACCTCCAGGGAGGGGAGAGGG | -1.13
GACGTGACCCGCCGCCCGAGGTCACTGTAT | 2.98
TCTGGAAGGAAGGAGGGAGGCAGGGAGACA | -1.19
GTTACTGGAGGCTGGAGCTCCTGGGCCAAA | -1.22
TATCAGCAAGGAAATAAAAGAGCCTGAGCC | -1.12
CTGCAGATTGACTCAGGCATTCTGACCTTT | 6.93
CCAGCACTGTCAGCAGGGGGATCCACTTCC | -1.21
GACAAAGCACAATCAAAGCAATGGCTACCA | -1.13
GTATTTTTGCAATCCTCCACTCTCCAAAAT | -0.386
GCGCGGCGCGCTGGGAAGGCTCGTTCTCGC | -0.789

Sequence | binding signal (log2 normalized intensity)
CCCAGGAGCACAAATAACATTCCTAACATT | -1.16
CAGTAGAAAACAGAGAAGCCGTGGTGCTGT | -0.794
GTTCAGTTAGAGGGCTCAATGGATACACCA | -0.705
TTCTTGTATCTGATCTGTGTTTCCACAAAC | 1.49
GGAGGCTCAGAGTCTGTGGAGACACTGCCA | -1.06
GAGAAACACATAAACCCTGACCCTCAAGGG | -0.481
CCACAGTATCCCTTGCTCAACTCCCTCTGA | -1.18
CAAACAAATGCAAAACTGGCAAAACTGGTC | -1.03
TAATCACTGCCCTTTGGTGCCTCTTTTTTC | 2.13
GCTGCCCTGGTAAGTTCCACTGCATCAGTG | -1.02
TTGATCATTCCTGCACAGGACTGCTCTCTA | -0.803
TTTTAAGGTCTGGCATTCTTTTTGACCTTT | 7.55
TAGGTTATCTTTGGAGAATGCCTTTTGTGT | 2.15
AGAAGGCAAAAATGCAGGCAATGAATAGAA | -1.06
TGTTTTTTGCCCTTTGTACCCACACACACC | 6.48
GTTCACAAATAGCAGAAAATCCAGGTGCAG | -0.723
TCCCCACTTATTACCGGTGTGACTTTGGTT | 2.1
AAACTCCTTCCCTTTCATGTTGAACGTCTT | 2.12
CCGCTGGCCTCCCCATCCTCATGACAGTAC | 2.96
TGGCCCTCTTCCAAGTGTTCTTTACTTCCT | 0.969
CACTTGTGTGTAGACTCCAGGCTTGTCCTT | 1.25
TGAAGTTACAAAGGTCACACACCTGTGCAA | 3.75
CTGGTTGAGGCAAGCAAAAGCCAAGGCATC | -1.2
GCCCTGGTTGAGGAATTTGGCTCTAGAGGA | -1.16

Sequence | binding signal (log2 normalized intensity)
GGGCCAGCAAGAGGTGACCCCAGGGCAAAG | 2.92
CAAACTGCATTCTTGTAGGTTTTTTTTTTT | 2.35
AGATAGAGGGCTGCCAAAGCTCACAGATGT | -1.13
AGCCCGAGCTGCTGGAACAGGCTGGGACAC | -1.26
TTTGCTCTGATCTTTGACTTCTAGTTCTTA | 1.6
CCAGAACTATCATACACTATTTTCCTAAAT | -1.2
ACGAAGAGCAAACATGGGCTTAAGACAAGA | -1.12
ACTTAACAAGTGAAAGTCTAAAGTTCAGTG | 4.46
CATTTCAGTGAACTTTTCAATGCTCCAGTA | 0.573
CCTTTTCACGCTAAGAAGGAATCTGTTCAC | 1.45
GGAATGAAACCAGTTTCAAAACCTGATTCT | -1.25
ACTGGGAGATAATGCACTGGTGACTTTAAG | 0.195
CAACTAAAGGAATGCGCCTGAACTGACTGC | -1.09
CCAGTCGCTTAACCTCTTGATCCTGAGTTT | 1.13
TTGAACTGAAGGATATTGGCAACGCCTCAG | -0.936
CAAAGGAGCTTTATTGGTTCCATAAGTCAA | -0.00154
CCCAGCGGATTAATATCCAGAGGCTGAGCA | -1.2
CCTGACCTGAAAGGTAGGCAGAGAGGCTGC | -1.34
GCTCTCCCACTCCCCCTGCTGGACACCGAG | 3.37
TTATCTCACAAGCATGGGCCTCCTCTTCTT | -1.11
CCTTTTTTTTGTGTGTGTGTCAGAGACCCA | 1.94
GGACTGTGACCCCACCTCTCAGACAGAGCT | 2.75
CAGGGTAGAAAAGAGTTAAAAAAAAAAAAA | -1.08
TGATAGCTAGAGAGTTCAAGAAGGGCAGTT | 0.723
